Test results: the supplement of paper PMC4604168 (melanoma cell lines)
The other results are listed elsewhere or left out. Most values come without repeats; read them as rough.
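Further: cells treated in 1,536-well plates, then fixed and DAPI-stained, with nuclei counted from automated high-throughput microscope images.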

These compounds were tested on COLO800 (assay: cell count relative to DMSO control; melanoma cells; higher = more viable cells). Details: library dose: standard library concentration; 72 h.
COc1ccc(C2=N[C@@H](c3ccc(Cl)cc3)[C@@H](c3ccc(Cl)cc3)N2C(=O)N2CCNC(=O)C2)c(OC(C)C)c1 [Nutlin-3] + CCCCCCCCc1ccc(CCC(N)(CO)CO)cc1 [fingolimod] (first compound 0.5 µM, partner dose 10 µM) gave a cell count of 6.41%. CC(C)C[C@H](NC(=O)[C@H](Cc1ccccc1)NC(=O)c1cnccn1)B(O)O [Bortezomib] + O=C(Nc1ccccc1)c1cc([N+](=O)[O-])ccc1Cl [GW9662] (first compound 0.005 µM, partner dose 10 µM) gave a cell count of 47.9%. For Cc1cc(Nc2cc(N3CCN(C)CC3)nc(/C=C/c3ccccc3)n2)n[nH]1 + O=C(O)[C@@H]1[O][Sb](=[O])([O][Sb]2(=[O])[O][C@H]([C@H](O)CO)[C@H](O)[C@H](C(=O)O)[O]2)[O][C@H]([C@H](O)CO)[C@@H]1O [stibogluconate] (first compound 0.2 µM, partner dose 10 µM), the cell count was 48.4%. COc1ccc(C2=N[C@@H](c3ccc(Cl)cc3)[C@@H](c3ccc(Cl)cc3)N2C(=O)N2CCNC(=O)C2)c(OC(C)C)c1 [Nutlin-3] + O=C(O)C(=O)Nc1sc2c(c1C(=O)O)CCNC2 [TCS401] (first compound 0.5 µM, partner dose 8.33333 µM) was tested, and the cell count was 93.1%. Cc1cc(Nc2cc(N3CCN(C)CC3)nc(/C=C/c3ccccc3)n2)n[nH]1 + O=C(O)c1ccc(-c2c[nH]c3ncc(-c4ccccc4)cc23)cc1C1CCCC1 [GSK650394] (first compound 0.2 µM, partner dose 0.8 µM) was tested, and the cell count was 64%. For Cc1cc(Nc2cc(N3CCN(C)CC3)nc(/C=C/c3ccccc3)n2)n[nH]1 + C#Cc1cccc(Nc2ncnc3cc(OCCOC)c(OCCOC)cc23)c1 [erlotinib] (first compound 0.2 µM, partner dose 4 µM), the cell count was 97.3%. With Cc1cn(-c2cc(NC(=O)c3ccc(C)c(Nc4nccc(-c5cccnc5)n4)c3)cc(C(F)(F)F)c2)cn1 [nilotinib] + COc1cc2c(Oc3ccc4[nH]c(C)cc4c3F)ncnc2cc1OCCCN1CCCC1 [cediranib] (first compound 1 µM, partner dose 2 µM) the cell count was 67.3%. Cc1cn(-c2cc(NC(=O)c3ccc(C)c(Nc4nccc(-c5cccnc5)n4)c3)cc(C(F)(F)F)c2)cn1 [nilotinib] + C=C(c1ccc(C(=O)O)cc1)c1cc2c(cc1C)C(C)(C)CCC2(C)C [Bexarotene] (first compound 1 µM, partner dose 10 µM) was tested, and the cell count was 112%. Cc1cc(Nc2cc(N3CCN(C)CC3)nc(/C=C/c3ccccc3)n2)n[nH]1 + C=C(c1ccc(C(=O)O)cc1)c1cc2c(cc1C)C(C)(C)CCC2(C)C [Bexarotene] (first compound 0.2 µM, partner dose 10 µM) was tested, and the cell count was 114%. Cc1cn(-c2cc(NC(=O)c3ccc(C)c(Nc4nccc(-c5cccnc5)n4)c3)cc(C(F)(F)F)c2)cn1 [nilotinib] + NC(=O)c1ccc(N(C(N)=O)c2c(F)cccc2F)nc1-c1ccc(F)cc1F [VX702] (first compound 1 µM, partner dose 2 µM) was tested, and the cell count was 84.3%. COc1ccc(C2=N[C@@H](c3ccc(Cl)cc3)[C@@H](c3ccc(Cl)cc3)N2C(=O)N2CCNC(=O)C2)c(OC(C)C)c1 [Nutlin-3] + CC1(C)NC(=O)N(c2ccc([N+](=O)[O-])c(C(F)(F)F)c2)C1=O [nilutamide] (first compound 0.5 µM, partner dose 5 µM) was tested, and the cell count was 81.7%. With Cn1c(=O)n(-c2ccc(C(C)(C)C#N)cc2)c2c3cc(-c4cnc5ccccc5c4)ccc3ncc21 + CN1CCN(c2ccc3nc(-c4c(N)c5c(F)cccc5[nH]c4=O)[nH]c3c2)CC1 [Dovitinib] (first compound 0.02 µM, partner dose 0.5 µM) the cell count was 90.3%. Work on Cn1c(=O)n(-c2ccc(C(C)(C)C#N)cc2)c2c3cc(-c4cnc5ccccc5c4)ccc3ncc21 + CS(=O)(=O)CCNCc1ccc(-c2ccc3ncnc(Nc4ccc(OCc5cccc(F)c5)c(Cl)c4)c3c2)o1 [lapatinib] (first compound 0.02 µM, partner dose 4 µM) yielded a cell count of 55.6%. In the case of Cc1cn(-c2cc(NC(=O)c3ccc(C)c(Nc4nccc(-c5cccnc5)n4)c3)cc(C(F)(F)F)c2)cn1 [nilotinib] + Cn1cnc2c(F)c(Nc3ccc(Br)cc3Cl)c(C(=O)NOCCO)cc21 [selumetinib] (first compound 1 µM, partner dose 0.075 µM), the cell count is reported as 70.5%. With Cc1cn(-c2cc(NC(=O)c3ccc(C)c(Nc4nccc(-c5cccnc5)n4)c3)cc(C(F)(F)F)c2)cn1 [nilotinib] + CN(c1ncccc1CNc1nc(Nc2ccc3c(c2)CC(=O)N3)ncc1C(F)(F)F)S(C)(=O)=O [PF562271] (first compound 1 µM, partner dose 0.4 µM) the cell count was 105%. CC(C)C[C@H](NC(=O)[C@H](Cc1ccccc1)NC(=O)c1cnccn1)B(O)O [Bortezomib] + O=C(O)[C@@H]1[O][Sb](=[O])([O][Sb]2(=[O])[O][C@H]([C@H](O)CO)[C@H](O)[C@H](C(=O)O)[O]2)[O][C@H]([C@H](O)CO)[C@@H]1O [stibogluconate] (first compound 0.005 µM, partner dose 10 µM) was tested, and the cell count was 43.9%. In the case of Cc1cc(Nc2cc(N3CCN(C)CC3)nc(/C=C/c3ccccc3)n2)n[nH]1 + CCCCCCCCCCCC1=C(O)C(=O)C=C(O)C1=O [Embelin] (first compound 0.2 µM, partner dose 6 µM), the cell count is reported as 81.2%. Cc1cc(Nc2cc(N3CCN(C)CC3)nc(/C=C/c3ccccc3)n2)n[nH]1 + C[C@@H]1CCN(C(=O)CC#N)C[C@@H]1N(C)c1ncnc2[nH]ccc12 [CP690550] (first compound 0.2 µM, partner dose 5 µM) showed a cell count of 75.1%. Compound Cc1cc(Nc2cc(N3CCN(C)CC3)nc(/C=C/c3ccccc3)n2)n[nH]1 + COc1ccc(-c2ccc3c(N4CCOCC4)nc(N4C[C@@H](C)O[C@@H](C)C4)nc3n2)cc1CO [KU0063794] (first compound 0.2 µM, partner dose 0.1 µM) has a cell count of 54.2%. Compound Cn1c(=O)n(-c2ccc(C(C)(C)C#N)cc2)c2c3cc(-c4cnc5ccccc5c4)ccc3ncc21 + C[C@]1(c2nc3c(C(N)=O)cccc3[nH]2)CCCN1 [Veliparib] (first compound 0.02 µM, partner dose 7 µM) has a cell count of 37.8%. With CC(C)C[C@H](NC(=O)[C@H](Cc1ccccc1)NC(=O)c1cnccn1)B(O)O [Bortezomib] + Cc1nc(Nc2ncc(C(=O)Nc3c(C)cccc3Cl)s2)cc(N2CCN(CCO)CC2)n1 [dasatanib] (first compound 0.005 µM, partner dose 0.02 µM) the cell count was 20.1%. With Cc1cc(Nc2cc(N3CCN(C)CC3)nc(/C=C/c3ccccc3)n2)n[nH]1 + C[C@]1(c2nc3c(C(N)=O)cccc3[nH]2)CCCN1 [Veliparib] (first compound 0.2 µM, partner dose 7 µM) the cell count was 32.3%. Cc1cn(-c2cc(NC(=O)c3ccc(C)c(Nc4nccc(-c5cccnc5)n4)c3)cc(C(F)(F)F)c2)cn1 [nilotinib] + O=c1cc(-c2cccc3c2Sc2ccccc2S3)oc(N2CCOCC2)c1 [KU55933] (first compound 1 µM, partner dose 5 µM) was tested, and the cell count was 97%. COc1ccc(C2=N[C@@H](c3ccc(Cl)cc3)[C@@H](c3ccc(Cl)cc3)N2C(=O)N2CCNC(=O)C2)c(OC(C)C)c1 [Nutlin-3] + COC(=O)c1sccc1S(=O)(=O)Nc1ccc(Nc2ccccc2)cc1OC [GSK0660] (first compound 0.5 µM, partner dose 5 µM) showed a cell count of 89.6%. In the case of Cn1c(=O)n(-c2ccc(C(C)(C)C#N)cc2)c2c3cc(-c4cnc5ccccc5c4)ccc3ncc21 + COc1ccc(-c2ccc3c(N4CCOCC4)nc(N4C[C@@H](C)O[C@@H](C)C4)nc3n2)cc1CO [KU0063794] (first compound 0.02 µM, partner dose 0.1 µM), the cell count is reported as 93.2%. Cc1cn(-c2cc(NC(=O)c3ccc(C)c(Nc4nccc(-c5cccnc5)n4)c3)cc(C(F)(F)F)c2)cn1 [nilotinib] + CC1(C)NC(=O)N(c2ccc([N+](=O)[O-])c(C(F)(F)F)c2)C1=O [nilutamide] (first compound 1 µM, partner dose 5 µM) showed a cell count of 68.9%. For Cn1c(=O)n(-c2ccc(C(C)(C)C#N)cc2)c2c3cc(-c4cnc5ccccc5c4)ccc3ncc21 + CN(NC(=O)CC(=O)NN(C)C(=S)c1ccccc1)C(=S)c1ccccc1 [STA4783] (first compound 0.02 µM, partner dose 0.03 µM), the cell count was 36.9%. Cc1cn(-c2cc(NC(=O)c3ccc(C)c(Nc4nccc(-c5cccnc5)n4)c3)cc(C(F)(F)F)c2)cn1 [nilotinib] + C[C@@H]1CCN(C(=O)CC#N)C[C@@H]1N(C)c1ncnc2[nH]ccc12 [CP690550] (first compound 1 µM, partner dose 5 µM) gave a cell count of 85.9%.
